{"source": "PubChem BioAssay AID1461", "about": "(National Center for Advancing Translational Sciences (NCATS), 2008)", "note": "Out of some 220,000 compounds screened, about 2,300 (1%) were called active. The inconclusive results got no clear call from the source; some entries with a clear call stand among them for comparison. Calls come from the whole dose curve; as a rule, active = well fitted inhibition curve with a large enough effect; inconclusive = small, poorly fitted or top-dose-only effect, or effect the other way; inactive = no such curve, though single readings can be large or run the other way. Potencies of inconclusive entries are left out as doubtful fits. Potency is the fitted concentration of half-maximal effect; tags give direction and shape of the fitted curve.", "data": [{"molecular_target": "Neuropeptide S receptor (Homo sapiens) (UniProt Q6W5P4)", "sequence (Q6W5P4 whole entry, looked up)": "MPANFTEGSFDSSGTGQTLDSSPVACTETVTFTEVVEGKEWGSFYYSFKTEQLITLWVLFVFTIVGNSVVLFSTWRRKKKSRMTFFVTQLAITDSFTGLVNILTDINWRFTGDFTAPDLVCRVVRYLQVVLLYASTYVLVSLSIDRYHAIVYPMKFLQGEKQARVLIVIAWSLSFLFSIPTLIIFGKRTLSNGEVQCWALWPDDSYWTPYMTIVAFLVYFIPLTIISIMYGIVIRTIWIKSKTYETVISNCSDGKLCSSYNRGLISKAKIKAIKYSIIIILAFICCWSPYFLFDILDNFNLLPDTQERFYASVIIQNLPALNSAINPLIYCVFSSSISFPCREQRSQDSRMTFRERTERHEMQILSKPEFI", "assay": "qHTS Assay for Antagonists of the Neuropeptide S Receptor: cAMP Signal Transduction; note: nearly all actives have a fitted effect of over 50% in size", "conditions": "CHO-NPSR cells, cAMP TR-FRET, antagonist mode; series mostly up to 38.3 µM", "values": [{"smiles": "O=C(COC(=O)c1ccc(Cl)c(S(=O)(=O)N2CCc3ccccc3C2)c1)Nc1ncc(Cl)cc1Cl", "Potency": "inactive"}, {"smiles": "CN(C)CCCn1c(SCC(=O)N2c3ccccc3Sc3ccccc32)nc2ccccc2c1=O", "Potency": "inconclusive [inhibitor, single point]"}, {"smiles": "COc1cc(NC(=O)c2ccc(Cl)cc2)c(OC)cc1Cl", "Potency": "inconclusive [inhibitor, single point]"}, {"smiles": "N#C/C(=C\\c1cn[nH]c1-c1ccccc1)C(=O)NC1CCCCCC1", "Potency": "inconclusive [inhibitor, single point]"}, {"smiles": "O=C(NCc1ccccc1)C1=C[C@H](C2CCCCC2)C[C@H](OCc2ccc(CO)cc2)O1", "Potency": "inconclusive [activator, partial curve]"}, {"smiles": "Cc1c(C(=O)Oc2ccc(-c3cnc4ccccc4n3)cc2)cccc1[N+](=O)[O-]", "Potency": "inconclusive [inhibitor, partial curve, poor fit]"}, {"smiles": "Cc1ccc(/C=[N+](\\[O-])c2ccc(N(C)C)cc2)c2nsnc12", "Potency": "inconclusive [inhibitor, single point]"}, {"smiles": "COc1cc(/C=N/c2oc(-c3ccccc3)cc2C#N)ccc1O", "Potency": "inconclusive [inhibitor, single point]"}, {"smiles": "Oc1ccc(/C=C/c2nc(-c3ccccc3O)n(-c3ccccc3)n2)cc1", "Potency": "inconclusive [inhibitor, single point]"}, {"smiles": "O=C1CC(c2ccco2)Cc2c1cnn2-c1nc2ccccc2s1", "note": "(centres undefined)", "Potency": "inconclusive [inhibitor, single point]"}, {"smiles": "O=[N+]([O-])c1ccc(NC(=S)NCc2ccncc2)cc1", "Potency": "inactive"}, {"smiles": "O=C(CSc1nc(O)cc(=O)n1C1CCCC1)Nc1cccc(Cl)c1Cl", "Potency": "inactive"}, {"smiles": "Brc1ccccc1OCCCN1CCOCC1", "Potency": "inactive"}, {"smiles": "O=C(NCc1ccccn1)C1CCN(Cc2cccc(OCc3ccccc3)c2)CC1", "Potency": "inactive"}, {"smiles": "CC(=O)Nc1ccc(S(=O)(=O)NC2=C(N3CCN(c4ccc(F)cc4)CC3)C(=O)c3ccccc3C2=O)cc1", "Potency": "inconclusive [inhibitor, single point]"}, {"smiles": "Cc1ccc(/C=C2\\Oc3c(ccc(O)c3CN3CCN(CCO)CC3)C2=O)cc1", "Potency": "active: 10 µM"}, {"smiles": "CCO[C@H]1OC(C(=O)N2CCN(Cc3ccccc3)CC2)=C[C@@H](c2cn(C(C)=O)c3ccccc23)[C@@H]1CCCO", "Potency": "inconclusive [activator, partial curve]"}, {"smiles": "CCOC(=O)/C(C#N)=C1/C=Nc2ccccc2N1", "Potency": "inactive"}, {"smiles": "COc1ccc(S(=O)(=O)N2CCCCCC2)cc1N(C)S(=O)(=O)c1ccc(Cl)cc1", "Potency": "inconclusive [inhibitor, single point]"}]}]}
